# PubChem BioAssay AID624417 (National Center for Advancing Translational Sciences (NCATS), 2012)
# Among all 410,000 compounds or so, about 6,400 (1.6%) were called active. This list was built around the results that the source calls inconclusive (neither active nor inactive); the mix of calls is not that of the screen. Calls follow the shape of the dose curve; as a rule, active = well fitted inhibition curve with a large enough effect; inconclusive = small, poorly fitted or top-dose-only effect; inactive = no such curve, though single readings can be large or run the other way. No potency is given beside an inconclusive call; the fits are too rough.
# Biological target: Glucagon-like peptide 1 receptor (Homo sapiens) (UniProt P43220)
# Assay: qHTS of GLP-1 Receptor Inverse Agonists (Inhibition Mode); also: nearly all actives have a fitted effect of over 55% in size
# Conditions: HEK293 GLP-1R CRE-luciferase, luminescence, 24 h, GLP-1R form is constitutively active; activity change, negative = inhibition: at 38.3 µM (top of the series) unless noted
# Outline: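 qHTS in 1536-well format: reporter HEK293 cells expressing constitutive GLP-1R activity in DMEM + 10% Nu serum, 24 hr with compounds at 37 deg C, luminescence read after 12 min with detection reagent.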
# % is scaled to controls: 0 for no effect and ±100 for the full control effect; potency is read from the fitted curve at half-maximal effect; tags tell the direction and shape of the fitted curve.
# Chain of UniProt P43220 (P43220 whole entry, looked up): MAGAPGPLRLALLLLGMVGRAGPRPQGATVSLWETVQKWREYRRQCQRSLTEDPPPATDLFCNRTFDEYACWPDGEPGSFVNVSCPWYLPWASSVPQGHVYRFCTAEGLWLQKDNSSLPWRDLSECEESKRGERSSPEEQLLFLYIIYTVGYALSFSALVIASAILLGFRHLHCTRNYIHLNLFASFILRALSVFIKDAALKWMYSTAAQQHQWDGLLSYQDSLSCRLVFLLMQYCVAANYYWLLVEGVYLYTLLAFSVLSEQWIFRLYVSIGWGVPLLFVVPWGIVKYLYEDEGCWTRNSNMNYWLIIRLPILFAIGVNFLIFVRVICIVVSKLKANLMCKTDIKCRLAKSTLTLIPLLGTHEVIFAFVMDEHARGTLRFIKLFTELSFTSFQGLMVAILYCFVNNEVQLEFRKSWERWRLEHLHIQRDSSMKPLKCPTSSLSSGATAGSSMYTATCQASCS
SMILES,Potency,"activity change, negative = inhibition"
CN1CCN(c2nc(Nc3ccc(O)cc3)nc3ccccc23)CC1,"inconclusive [inhibitor, partial curve, poor fit]",
O=C(CN1CCC(Cc2ccccc2)CC1)NC(=O)NCc1ccco1,"inconclusive [inhibitor, partial curve, poor fit]",
CC1Cc2ccccc2N1C(=O)CSc1nnc2n1C(C)(C)Cc1ccccc1-2 (stereo not given),"inconclusive [inhibitor, partial curve, poor fit]",
Cc1cn([C@H]2C[C@H](O)[C@@H](CNC=O)O2)c(=O)[nH]c1=O,inactive,
C=CCNC(=O)COc1ccc(S(=O)(=O)Nc2ccc(OCC)cc2)cc1,inactive,
Cc1ccc2c(c1)C(=O)C(=O)N2CCCOc1ccccc1,"inconclusive [inhibitor, single point]",
COC(=O)c1ccc(N2CCN(c3ccccc3)CC2)nc1,inactive,
CN1C(=O)c2ccccc2Sc2ccc(NC(=O)NCc3cccc(Cl)c3)cc21,"inconclusive [inhibitor, single point]",
COc1ccc(NS(=O)(=O)c2ccc3oc(=O)c4[nH]c(=O)c(=O)n(C)c4c3c2)cc1,inactive,
O=C(NCC1COc2ccccc2O1)c1cc2ccccc2o1 (stereo not given),"inconclusive [inhibitor, single point]",
O=C(Nc1ccc(OCC(F)(F)C(F)F)c(C(F)(F)F)c1)c1ccc(Cl)cc1,active: 3.55 µM,
Cc1ccc(CCNC(=O)C2CCC(=O)N(CC3CCCCC3)C2)cc1 (stereo not given),"inconclusive [inhibitor, single point]",
COc1ccc(-c2csc3ncnc(N4CCN(c5cccc(OC)c5)CC4)c23)cc1,"inconclusive [inhibitor, full curve]",
CCN(CC)S(=O)(=O)c1ccc(C(=O)NCCSc2c(-c3ccc(C)cc3)[nH]c3ccccc23)cc1,inactive,
CCN(CC)S(=O)(=O)c1ccc(C)c(NC(=O)CN2CCN(Cc3ccccc3)CC2)c1,"inconclusive [inhibitor, single point]",
COc1ccc(CCNC(=O)c2ccc3c(c2)N(Cc2ccccc2F)C(=O)c2ccccc2S3=O)cc1OC (stereo not given),inactive,
CCCCN(CCCC)c1ccc(C(=O)c2ccccc2C(=O)O)c(O)c1,"inconclusive [inhibitor, single point]",
COC(=O)c1cccc(NC(=O)c2nsc3ccccc23)c1,"inconclusive [inhibitor, single point]",
COc1cccc(OCc2cc(=O)n3c(-c4ccccc4)csc3n2)c1,inactive,
O=c1oc(-c2cccs2)nc2sc3c(c12)CCCC3,inactive,
CS(=O)(=O)c1ccc(C(=O)OCC(=O)NCc2cccs2)cc1[N+](=O)[O-],"inconclusive [inhibitor, single point]",
CCOc1ccc(OCC(=O)Nc2nccs2)cc1,"inconclusive [inhibitor, single point]",

SMILES,Potency,"activity change, negative = inhibition"
COc1cc(C(=O)Nc2cccc(-n3cnnn3)c2)cc(Cl)c1OC,"inconclusive [inhibitor, single point]",
Nc1c(-c2n[nH]c(=S)n2-c2ccc(Cl)cc2Cl)cnn1-c1ccccc1,inactive,
COc1ccc(S(=O)(=O)n2nc(-c3ccc(Cl)cc3)cc2N)cc1,active: 10 µM,
Cc1cccc(C)c1-n1nnnc1C(c1ccccc1OC(F)(F)F)N1CCN(C/C=C/c2ccccc2)CC1 (stereo not given),"inconclusive [inhibitor, partial curve]",
COc1ccc(/C=C/c2c([N+](=O)[O-])c(=O)n(C)c(=O)n2C)cc1OC,inactive,
Cc1ccsc1C(=O)NC1CCCN(Cc2ccc(Cl)cc2)C1 (stereo not given),"inconclusive [inhibitor, partial curve, poor fit]",
Cc1nc(N)nc(N/N=C/c2ccccc2)n1,inactive,
O=C(Nc1ccccc1N1CCOCC1)c1ccc(F)c(S(=O)(=O)N2CCOCC2)c1,inactive,
COc1ccccc1-c1cn[nH]c1-c1ccc(O)cc1O,"inconclusive [inhibitor, single point]",
CC(/C=N/NC(=O)c1cc(-c2cccnc2)nc2c1c(C)nn2-c1ccccc1)=C\c1ccccc1,"inconclusive [inhibitor, full curve, poor fit]",
Cc1cccc(OCC(O)Cn2c(=N)n(CCN3CCCCC3)c3ccccc32)c1 (stereo not given),"inconclusive [inhibitor, partial curve, poor fit]",
COc1ccc(-n2nc(C(=O)N3CCN(c4ccc(F)cc4)CC3)c3ccccc3c2=O)c(OC)c1,"inconclusive [inhibitor, partial curve, poor fit]",
O=C(CSc1n[nH]c(-c2ccccc2)n1)Nc1ncccn1,inactive,
CCn1c2ccccc2c2cc(CNCCCN3CCOCC3)ccc21,"inconclusive [inhibitor, partial curve, poor fit]",
CCc1ccc(CN(Cc2ccco2)C(=O)COc2ccc(Cl)c(C)c2)cc1,"inconclusive [inhibitor, single point]",
CCn1cc(C(=O)NCc2ccc(C)cc2)c(=O)c2cc(S(=O)(=O)N(C)C3CCCCC3)ccc21,"inconclusive [inhibitor, single point]",
CCC(C)Nc1oc(-c2ccc(COc3ccc(Cl)cc3)o2)nc1C#N (stereo not given),"inconclusive [inhibitor, single point]",
CCCCCCCCCC[N+](C)(C)CC/C=C1/c2ccccc2Sc2ccc(Cl)cc21,"inconclusive [inhibitor, single point]",
Cc1[nH]nc2c1C(c1ccc(-c3ccccc3C#N)o1)C(C#N)=C(N)O2 (stereo not given),inactive,
CN(C)S(=O)(=O)c1ccc(Cl)c(NC(=O)CN2CCN(Cc3ccc4c(c3)OCO4)CC2)c1,"inconclusive [inhibitor, partial curve, poor fit]",
COc1ccc(CCNC(=O)c2cc(C(=O)c3cc(C)ccc3O)cn(CCc3ccc(OC)cc3)c2=O)cc1,"inconclusive [inhibitor, partial curve, poor fit]",
CCNc1cc(S(=O)(=O)C(F)(F)F)ccc1N,"inconclusive [inhibitor, single point]",

SMILES,Potency,"activity change, negative = inhibition"
O=[N+]([O-])c1ccc(CSc2nnc(SCc3ccc(Cl)cc3)s2)cc1,"inconclusive [inhibitor, partial curve, poor fit]",
COc1ccc(/C=N/NC(=O)c2[nH]c3ccc(Br)cc3c2-c2ccccc2)c(C(=O)O)c1OC,"inconclusive [inhibitor, single point]",
O=C(Nc1ccc(OCc2cc(=O)n3ccccc3n2)cc1)c1ccccc1Cl,inactive,
CCCC(=O)Nc1ccc(NC(=O)C23CC4CC(CC(C4)C2)C3)cn1,"inconclusive [inhibitor, partial curve, poor fit]",
CCOC(=O)Cc1csc(N/N=C/c2ccccc2)n1,"inconclusive [inhibitor, single point]",
Cc1ccc(C)c(OCC(O)CN2C(C)CCCC2C)c1 (stereo not given),"inconclusive [inhibitor, partial curve, poor fit]",
O=C1c2ccccc2C(=O)N1CCCCN(C(=O)c1cccc([N+](=O)[O-])c1)c1ccc(Cl)cc1,"inconclusive [inhibitor, partial curve, poor fit]",
O=c1[nH]c(NCCO)nc2c1C1(CCCC1)Cc1ccccc1-2,inactive,
Cc1ncc(C23CC4CC(CC(C4)C2)C3)[nH]1,"inconclusive [inhibitor, partial curve, poor fit]",
Clc1cccc(CNc2ccn3nc(-c4ccc(OCCN5CCOCC5)cc4)cc3n2)c1,"inconclusive [inhibitor, single point]",
O=C(CNc1cccc(S(=O)(=O)N2CCOCC2)c1)Nc1cccc(Br)c1,"inconclusive [inhibitor, single point]",
Cc1ccc(-c2nc(CS(=O)(=O)CC(=O)NCCc3ccccc3)c(C)o2)cc1,inactive,
COc1ccc(C(=O)c2c(N)sc3c2CCN(C(=O)OC(C)(C)C)C3)cc1,"inconclusive [inhibitor, full curve, poor fit]",
COc1ccc(S(=O)(=O)c2c(SC)nn(CC(=O)Nc3cccc(C)c3C)c2N)cc1,"inconclusive [inhibitor, single point]",
Cc1ccccc1CSCC(=O)Nc1ccccc1Br,"inconclusive [inhibitor, partial curve, poor fit]",
CCN1/C(=C/c2ccc3ccccc3[n+]2CC)C=Cc2ccccc21,"inconclusive [inhibitor, full curve, poor fit]",
O=S(=O)(NCc1cc(-c2ccccc2Cl)no1)c1ccc(Cl)cc1,"inconclusive [inhibitor, partial curve, poor fit]",
CN(Cc1c(C(=O)N/N=C/c2c(F)cccc2Cl)nnn1-c1nonc1N)c1ccccc1,"inconclusive [inhibitor, single point]",
CCOC(=O)N1CCN(CC(O)COc2ccccc2C(C)(C)C)CC1 (stereo not given),"inconclusive [inhibitor, partial curve, poor fit]",
Cc1cccc(NC(c2ccccc2C)c2ccc3ccc(C)nc3c2O)n1 (stereo not given),"inconclusive [inhibitor, partial curve, poor fit]",
COc1ccc(/C(C)=N/N2C(C)CCCC2C)c(OC)c1 (stereo not given),,inconclusive: -33.5% [inhibitor]
